Results: publication PMC4336329 (PLoS ONE, 2015)
About 2,200 (0.71%) of roughly 310,000 compounds showed an effect of 50% or more. Effects have a minus sign here. The list shows a part of the results.

Target: human ether-à-go-go-related gene (hERG) potassium channel (human, UniProt Q12809)
Test: primary screen, population patch clamp on CHO cells stably expressing hERG

human ether-à-go-go-related gene (hERG) potassium channel, sequence (Q12809 whole entry, looked up): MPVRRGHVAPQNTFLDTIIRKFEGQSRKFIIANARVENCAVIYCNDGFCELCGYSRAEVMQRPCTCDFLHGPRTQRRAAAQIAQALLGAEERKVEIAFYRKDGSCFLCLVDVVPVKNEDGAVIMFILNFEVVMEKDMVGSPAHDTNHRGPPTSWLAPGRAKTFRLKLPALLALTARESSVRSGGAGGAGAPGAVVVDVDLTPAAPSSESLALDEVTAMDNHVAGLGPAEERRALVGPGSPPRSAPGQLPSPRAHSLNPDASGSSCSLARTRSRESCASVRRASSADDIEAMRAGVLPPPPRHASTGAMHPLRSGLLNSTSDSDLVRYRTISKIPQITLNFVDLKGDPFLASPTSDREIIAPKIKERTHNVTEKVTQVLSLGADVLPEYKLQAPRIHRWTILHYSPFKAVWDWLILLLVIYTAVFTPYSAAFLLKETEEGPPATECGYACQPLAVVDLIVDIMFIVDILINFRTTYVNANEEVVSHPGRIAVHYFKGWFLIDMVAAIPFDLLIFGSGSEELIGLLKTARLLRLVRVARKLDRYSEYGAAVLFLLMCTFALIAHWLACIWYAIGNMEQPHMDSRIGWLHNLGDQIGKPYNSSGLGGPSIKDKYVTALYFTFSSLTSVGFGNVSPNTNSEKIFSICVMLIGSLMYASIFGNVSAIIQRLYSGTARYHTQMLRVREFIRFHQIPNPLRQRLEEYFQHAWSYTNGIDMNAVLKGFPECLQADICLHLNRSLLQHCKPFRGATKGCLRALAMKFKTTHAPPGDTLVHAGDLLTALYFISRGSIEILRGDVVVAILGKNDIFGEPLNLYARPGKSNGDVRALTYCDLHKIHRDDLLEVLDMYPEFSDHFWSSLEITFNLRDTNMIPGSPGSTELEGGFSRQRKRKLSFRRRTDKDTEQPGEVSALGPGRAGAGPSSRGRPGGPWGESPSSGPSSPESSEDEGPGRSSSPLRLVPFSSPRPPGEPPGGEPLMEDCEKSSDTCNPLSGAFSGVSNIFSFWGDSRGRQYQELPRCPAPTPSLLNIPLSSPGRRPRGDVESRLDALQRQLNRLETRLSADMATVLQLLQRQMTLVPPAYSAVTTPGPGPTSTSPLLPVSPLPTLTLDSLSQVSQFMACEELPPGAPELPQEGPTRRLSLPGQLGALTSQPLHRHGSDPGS

Structure (SMILES) | hERG current change (%, negative = inhibition) at 1uM
O=C(CCS(=O)(=O)c1cccc2nsnc12)N1CCN(C(=O)c2ccco2)CC1 | 10.3%
CN(C)CCCN1c2ccccc2Sc2ccccc21.Cl | 11.2%
O=C(COc1ccc(Cl)cc1Cl)N(Cc1ccco1)C1CCS(=O)(=O)C1 (centres unmarked) | 2.11%
CC(=O)Oc1ccc2c(c1)OC(c1ccccc1)CC21CC(C)(C)NC(=S)N1 (centres unmarked) | -3.13%
Cc1ccc(N=Nc2c(C)[nH]n(-c3ccccc3)c2=O)c(C)c1 | 15%
CC(C)(C)C(=O)Nc1sc2c(c1-c1nc3ccccc3[nH]1)CCCC2 | 2.22%
COc1ccc(C(=O)/C=C/C(=O)N(Cc2ccccc2)C(C(=O)NC2CCCCC2)c2ccncc2)c(O)c1 (centres unmarked) | 2.62%
Cc1cc(C(=O)NNC(=O)/C=C/c2ccc(F)cc2)c(C)o1 | -1.32%
N#Cc1ccc(C(=O)NCC(c2ccco2)N2CCCCC2)cc1 (centres unmarked) | -21.1%
O=C(NCCO)c1nc(C(=O)c2ccccc2)c2ccccc2n1 | 14.9%
Cc1ccc(N2C(=O)CC(Sc3ncccc3C(=O)O)C2=O)cc1 (centres unmarked) | 11.8%
C/C(=N\NC(=O)c1nnn(-c2nonc2N)c1CN(C)C)c1ccco1 | 2.61%
CCOC(=O)C1CCCN(c2cc(C)nc3cc(-c4ccc(Cl)cc4)nn23)C1 (centres unmarked) | 12%
Cc1ccccc1NC(=O)c1cccc(N2C(=O)C3CCCCC3C2=O)c1 (centres unmarked) | 19.5%
CCOC(=O)c1c(C)[nH]c(C(=O)COC(=O)C23CC4CC(CC(Cl)(C4)C2)C3)c1C | 12.1%
CCOC(=O)c1ccccc1-c1cn2cc(Cl)ccc2n1 | -4.73%
CCOC(=O)C1=C(C)OC(N)=C(C#N)C1c1cc(OC)c2c(c1)OCO2 (centres unmarked) | -9.98%
Cc1ccc(NC(=O)COC(=O)c2ccc(F)cc2Cl)c(Br)c1 | 13.7%
COc1cccc(CNc2ccc(F)c([N+](=O)[O-])c2)c1O | 10.7%
Nc1nonc1-n1nnc(C(=O)N/N=C/c2ccc(Cl)cc2Cl)c1CN1CCOCC1 | 11.1%
O=C(NNC(=O)c1cccc(-n2cccc2)c1)c1ccccc1 | 5.81%
CCOC(=O)c1sc(NC(=O)CSc2nnnn2-c2ccc(C)c(C)c2)nc1C | 9.56%

Structure (SMILES) | hERG current change (%, negative = inhibition) at 1uM
COc1cccc(NC(=O)Cn2cnc3sc(C)c(S(=O)(=O)N4CCN(C)CC4)c3c2=O)c1 | 19.5%
COc1cccc(C(=O)NCc2ccc3[nH]c(C)cc3c2)c1 | 18.8%
CC(=O)c1ccc(NC(=O)Cn2nc(C)cc2C)cc1 | -24.4%
Cc1cccc2[nH]c(CN(C)C(=O)C3CCC(=O)N(CCc4ccccc4)C3)nc12 (centres unmarked) | 12.6%
O=c1[nH]c2ccccc2n1CCCN1CCC(n2c(=O)[nH]c3cc(Cl)ccc32)CC1 | -46.8%
C=CCNC(=O)/C(=C/c1cccc([N+](=O)[O-])c1)NC(=O)c1ccco1 | -5.53%
COC(=O)C1=C(C)NC(C)=C(C(=O)OC)C1C(=O)OCC(=O)Nc1ccc(C(C)=O)cc1 | 11.7%
CN(Cc1ccco1)C(=O)c1ccc(S(=O)(=O)N2CCCCCC2)cc1 | -2.6%
COc1cc(C(=O)Nc2cccnc2)cc(OC)c1OC | 9.52%
CCOc1c(Br)cc(C2CC(=O)Nc3cc(OC)c(OC)cc32)cc1OC (centres unmarked) | 13.2%
Cc1ccn2c(=O)c(NC(=O)COc3ccccc3)c(C)nc2c1 | -17.4%
Cc1cc(=O)n(C)c(=O)n1CCCCOc1ccc([N+](=O)[O-])cc1 | -66.8%
C=CCn1c(SCC(=O)Nc2ccc(F)cc2)nc2ccccc2c1=O | 3.19%
O=C(/C(Cl)=C/Nc1ccc(Br)cn1)C(F)(F)F | 16.6%
COc1cccc(-c2cc(C(=O)N3N=C(C)CC3(O)C(F)F)c3ccccc3n2)c1 (centres unmarked) | 12.5%
CCCS(=O)(=O)N1CCN(C(=O)COc2ccc(-c3ccccc3)cc2)CC1 | -5.86%
CCCCCCCCCS(=O)(=O)N/N=C/c1cccc([N+](=O)[O-])c1 | 13.5%
CC1=C(C(=O)OCC2CCCCC2)C(c2ccccc2F)NC(=O)N1 (centres unmarked) | 6.23%
O=C1C=C(c2ccc3c(c2)OCO3)C[C@@H](c2ccc(Cl)cc2)C1 | 13.8%
COc1ccc(NS(=O)(=O)c2ccc(Br)cc2)cn1 | 6.28%
O=C1c2ccccc2S(=O)(=O)c2cc(C(=O)N3CCC(O)CC3)ccc21 | 13.7%
Cc1cc(C(=O)CN2CCCC2)c(C)n1-c1ccc(F)cc1 | 5.53%
